The record followed here is PubChem BioAssay AID2202238 (Ras Initiative Chemistry Research Team, Frederick National …, 2025).

The other results are listed elsewhere or left out. Shown are side measurements of this screen, not its main read-out; they come without a call.

This test addresses GTPase KRas (Homo sapiens) (UniProt P01116). Kind of test: Covalent labelling of cysteine mutants by fragments, read by mass spectrometry (AID 2202238). To be noted: KRAS G12D cysteine mutants, disulfide tethering, MALDI-TOF labeling, stronger effect = higher value, fragment at 500 µM. The arrangement: protein at 5 µM with 500 µM competing thiol for 1.5 h.
Sequence of UniProt P01116 (P01116 whole entry, looked up, the tested form may be a part): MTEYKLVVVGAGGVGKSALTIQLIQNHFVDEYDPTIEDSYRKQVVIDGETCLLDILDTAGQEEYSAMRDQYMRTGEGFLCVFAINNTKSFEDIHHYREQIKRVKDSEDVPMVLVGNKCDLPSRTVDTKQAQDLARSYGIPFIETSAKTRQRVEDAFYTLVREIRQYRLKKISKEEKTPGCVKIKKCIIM
Where [1] appears, read: measured here: G75C mutant labeling.
Setting [2] is: measured here: H94C mutant labeling.
[3] abbreviates: measured here: I36C mutant labeling.
Setting [4] is: measured here: L120C mutant labeling.
[5] abbreviates: measured here: M67C mutant labeling.
Setting [6] is: measured here: M72C mutant labeling.
Where [7] appears, read: measured here: N86C mutant labeling.
[8] abbreviates: measured here: P121C mutant labeling.
The mark [9] stands for this setting: measured here: S122C mutant labeling.
Setting [10] is: measured here: S136C mutant labeling.
Where [11] appears, read: measured here: G60C mutant labeling.
Setting [12] is: measured here: N26C mutant labeling.

Consider `COC(=O)C1(C2=CCN(C(=O)CCS)CC2)CC1`, for which the percent labeling runs as follows: under setting [1], 15.2%; under setting [2], 24.8%; under setting [3], 26.8%; under setting [4], 25.7%; under setting [5], 29.7%; under setting [6], 33.7%. Further, the percent labeling reads like this: under setting [7], 19.7%; under setting [8], 28.2%; under setting [9], 25.4%; under setting [10], 53.8%.

In the case of `NC(=O)c1ccc(N2CCN(C(=O)CCS)CC2)nc1`, the percent labeling was found to be 16.7% under setting [1]; 34.8% under setting [2]; 46.5% under setting [3]; 31.9% under setting [4]; 46.6% under setting [5]; 33.5% under setting [6]. Moreover, the percent labeling is 31.2% under setting [7], 33.9% under setting [8], 31.8% under setting [9] and 58.7% under setting [10].

In the case of `O=C(NCCS)c1cc2cccc(Cl)c2o1`, the percent labeling is, setting by setting: under setting [11], 24.1%; under setting [1], 19.4%; under setting [2], 16.6%; under setting [3], 8.2%; under setting [4], 11.1%; under setting [5], 10.9%. Further, the percent labeling turned out to be 30.3% under setting [6]; 28.2% under setting [12]; 7.5% under setting [7]; 13.4% under setting [8]; 9.6% under setting [9]; 17% under setting [10].

Turning to `CC1(C)C(=O)Nc2cc(C(=O)NCCS)ccc21`, the percent labeling runs as follows: under setting [11], 39.2%; under setting [1], 27.8%; under setting [2], 37%; under setting [3], 29%; under setting [4], 41.6%; under setting [5], 35.5%. In addition, the percent labeling by setting is: under setting [6], 64.2%; under setting [12], 49.3%; under setting [7], 31.3%; under setting [8], 29.6%; under setting [9], 33.4%; under setting [10], 55.4%.

Take `Cc1nc2cc(C(=O)NCCS)ccc2n1Cc1ccsc1`: the percent labeling came out at 26.9% under setting [11]; 16.4% under setting [1]; 18.6% under setting [2]; 9.5% under setting [3]; 14.2% under setting [4]; 22.2% under setting [5]. The percent labeling under setting [6] is 32%; the percent labeling under setting [12] amounted to 40.6%; the percent labeling under setting [7] is 15.8%; the percent labeling under setting [8] is 10.6%; the percent labeling under setting [9] was determined as 10%; the percent labeling under setting [10] worked out at 18.2%.

In the case of `O=C(Cc1ccccc1Br)NCCS`, the percent labeling reads like this: under setting [11], 59.7%; under setting [1], 17.7%; under setting [2], 35.1%; under setting [3], 25.1%; under setting [4], 38.5%; under setting [5], 31.9%. For the same compound, the percent labeling worked out at 47.8% under setting [6]; 38.5% under setting [12]; 35.2% under setting [7]; 25.5% under setting [8]; 22.3% under setting [9]; 36.9% under setting [10].

Take `O=C(NCCS)C1CCc2nc[nH]c2C1` (centres undefined): the percent labeling reads like this: under setting [11], 39.7%; under setting [1], 26.9%; under setting [2], 39.8%; under setting [3], 32.9%; under setting [4], 33.5%; under setting [5], 41%. Besides, the percent labeling is, setting by setting: under setting [6], 22.8%; under setting [12], 39.1%; under setting [7], 37.3%; under setting [8], 31.9%; under setting [9], 36.2%; under setting [10], 48.4%.

In the case of `O=C(CCS)NCCc1noc(COc2ccc(Cl)cc2)n1`, the percent labeling worked out at 8.9% under setting [1]; 46.1% under setting [2]; 20.4% under setting [3]; 18.8% under setting [4]; 30.8% under setting [5]; 32.4% under setting [6]. Further, the percent labeling amounted to 19.7% under setting [7], 16.7% under setting [8], 13.6% under setting [9] and 40.8% under setting [10].

With `O=C(NCCS)c1cccn1CCN1CCOCC1`, the percent labeling by setting is: under setting [11], 32%; under setting [1], 15.4%; under setting [2], 44.2%; under setting [3], 24.4%; under setting [4], 33.5%; under setting [5], 31.9%. Also, the percent labeling is, setting by setting: under setting [6], 23.4%; under setting [12], 41.8%; under setting [7], 26%; under setting [8], 32.9%; under setting [9], 31.8%; under setting [10], 43.2%.

In the case of `O=C(NC(Cc1ccccc1)C(=O)NCCS)c1ccccc1` (centres undefined), the percent labeling reads like this: under setting [11], 31.3%; under setting [1], 8.8%; under setting [2], 17%; under setting [3], 15.5%; under setting [4], 20.7%; under setting [5], 19%. Further, the percent labeling by setting is: under setting [6], 32.9%; under setting [12], 29%; under setting [7], 13.3%; under setting [8], 16.3%; under setting [9], 13.6%; under setting [10], 23.2%.

On to `CN(C(=O)CNC(=O)CCS)C1CCCCC1`, for which the percent labeling is, setting by setting: under setting [1], 11.4%; under setting [2], 22.9%; under setting [3], 30.3%; under setting [4], 36.8%; under setting [5], 21.9%; under setting [6], 20.8%. Also, the percent labeling reads like this: under setting [7], 18.9%; under setting [8], 31.3%; under setting [9], 36.4%; under setting [10], 50.3%.

With `O=C(CCS)NCC12COCCN1C(=O)COC2` (centres undefined), the percent labeling is, setting by setting: under setting [1], 8.8%; under setting [2], 27.8%; under setting [3], 33.6%; under setting [4], 27.6%; under setting [5], 32.1%; under setting [6], 8.4%. Besides, the percent labeling is 18.3% under setting [7], 33.3% under setting [8], 30.4% under setting [9] and 41.1% under setting [10].

On to `CN1CCN(c2nccnc2CNC(=O)CCS)CC1=O`, for which the percent labeling is 5.3% under setting [1]; 18.7% under setting [2]; 25.1% under setting [3]; 20.3% under setting [4]; 22.4% under setting [5]; 11.9% under setting [6]. The percent labeling runs as follows: under setting [7], 17.6%; under setting [8], 18.7%; under setting [9], 19.5%; under setting [10], 35.8%.

For the compound `COc1ccccc1Cc1noc(C2CCN(C(=O)CCS)CC2)n1`, the percent labeling runs as follows: under setting [1], 15.7%; under setting [2], 19.4%; under setting [3], 35.4%; under setting [4], 16.5%; under setting [5], 30%; under setting [6], 20%. Also, the percent labeling is, setting by setting: under setting [7], 16.2%; under setting [8], 16.2%; under setting [9], 22.2%; under setting [10], 40.9%.

For the compound `O=C(NCCS)[C@H]1CCCN1C(=O)c1ccccc1`, the percent labeling reads like this: under setting [11], 37%; under setting [1], 11.3%; under setting [2], 33.3%; under setting [3], 24.1%; under setting [4], 38.3%; under setting [5], 31.4%. This compound also returned a percent labeling under setting [6] of 26.5%; a percent labeling under setting [12] of 36.4%; a percent labeling under setting [7] of 28.1%; a percent labeling under setting [8] of 31.8%; a percent labeling under setting [9] of 34.2%; a percent labeling under setting [10] of 44%.

On to `Cc1cnc(C2CCN(C(=O)CCS)CC2)s1`, for which the percent labeling under setting [1] amounted to 19%; the percent labeling under setting [2] was found to be 35.3%; the percent labeling under setting [3] came to 40.9%; the percent labeling under setting [4] was found to be 36.8%; the percent labeling under setting [5] was 42.4%; the percent labeling under setting [6] worked out at 35.7%. Further, the percent labeling reads like this: under setting [7], 31.4%; under setting [8], 35.9%; under setting [9], 37.5%; under setting [10], 59.2%.

`CS(=O)(=O)c1cccc(C(NC(=O)CCS)c2ccc(F)cc2F)c1` (centres undefined) gave a percent labeling under setting [1] of 11.2%; a percent labeling under setting [2] of 23%; a percent labeling under setting [3] of 28.8%; a percent labeling under setting [4] of 18.6%; a percent labeling under setting [5] of 20.9%; a percent labeling under setting [6] of 19.4%. The percent labeling by setting is: under setting [7], 11.7%; under setting [8], 22.3%; under setting [9], 17.5%; under setting [10], 43.2%.

Turning to `O=C(CC1CN(Cc2ccccc2)CCO1)NCCS` (centres undefined), the percent labeling stood at 39.8% under setting [11]; 17% under setting [1]; 39% under setting [2]; 29.4% under setting [3]; 50.6% under setting [4]; 46.4% under setting [5]. The percent labeling is, setting by setting: under setting [6], 22.5%; under setting [12], 43.3%; under setting [7], 28.8%; under setting [8], 37.2%; under setting [9], 32.6%; under setting [10], 54.5%.

As to `O=C(COc1c(Cl)cccc1Cl)NCCS`, the percent labeling is, setting by setting: under setting [11], 43.7%; under setting [1], 30%; under setting [2], 28.2%; under setting [3], 16.7%; under setting [4], 26.7%; under setting [5], 24.2%. Further, the percent labeling came to 48.5% under setting [6]; 31.7% under setting [12]; 21.3% under setting [7]; 31.2% under setting [8]; 17.9% under setting [9]; 30.5% under setting [10].

Take `Cc1sc2nc(CN3CCN(C(=O)CCS)CC3)[nH]c(=O)c2c1C`: the percent labeling is 7.1% under setting [1]; 14.9% under setting [2]; 23.3% under setting [3]; 7.4% under setting [4]; 26.4% under setting [5]; 21.1% under setting [6]. The percent labeling was 7.1% under setting [7], 12.3% under setting [8], 9.1% under setting [9] and 37.8% under setting [10].

As for `O=C(NCCS)C1(Cc2cccc(Cl)c2)CCCCC1`, the percent labeling by setting is: under setting [11], 30.9%; under setting [1], 14.2%; under setting [2], 15.3%; under setting [3], 10.5%; under setting [4], 12.7%; under setting [5], 11.4%. In addition, the percent labeling came out at 31.5% under setting [6]; 27.5% under setting [12]; 8.2% under setting [7]; 13.6% under setting [8]; 8.3% under setting [9]; 20.9% under setting [10].

`COCCn1cc(C#N)c(NC(=O)CCS)n1`: the percent labeling by setting is: under setting [1], 9.5%; under setting [2], 22.1%; under setting [3], 36.2%; under setting [4], 38%; under setting [5], 26.6%; under setting [6], 17.7%. This compound had a percent labeling under setting [7] of 27.7%, a percent labeling under setting [8] of 32.9%, a percent labeling under setting [9] of 33.2% and a percent labeling under setting [10] of 42.6%.

With `Cc1nn(-c2ccccc2)c2ncc(C(=O)NCCS)cc12`, the percent labeling was 21.2% under setting [11]; 9.5% under setting [1]; 14.4% under setting [2]; 10.4% under setting [3]; 12.2% under setting [4]; 10.7% under setting [5]. In addition, the percent labeling is, setting by setting: under setting [6], 20.1%; under setting [12], 25.1%; under setting [7], 11.4%; under setting [8], 11.1%; under setting [9], 7%; under setting [10], 17.6%.
